The values below come from the supplement of paper PMC9446081.

Hit rate of the full screen: of about 39,000 compounds, about 220 (0.56%) showed activity. The list shows a part of the results.
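Also: static incubation at 37 °C against the wild-type strain, values averaged over two biological replicates.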

In this experiment the test system is Escherichia coli K-12 BW25113. The experiment is described as follows: relative growth (OD600 normalised to plate interquartile mean) (fraction); higher = less growth inhibition, active = 0.2 or less. As to conditions: 50 µM; LB; incubation time: overnight (16-24 h).
As for `COc1ccc(S(=O)(=O)Nc2ccc3c(c2)C(=O)N([C@H](C)CO)C[C@@H](C)[C@@H](CN(C)S(=O)(=O)c2cn(C)cn2)OCCCC[C@H](C)O3)cc1`, the relative growth was inactive: 1.

Consider `C[C@H](CO)N1C[C@H](C)[C@H](CN(C)C(=O)c2ccncc2)OCCCC[C@H](C)Oc2ccc(NC(=O)NC3CCCCC3)cc2C1=O`, for which the relative growth was inactive: 1.01.

`C[C@H](CO)N1C[C@H](C)[C@H](CN(C)S(=O)(=O)c2cn(C)cn2)Oc2c(NC(=O)c3nc4ccccc4s3)cccc2C1=O`: the relative growth was inactive: 0.979.

Regarding `C[C@@H]1CCCCO[C@H](CN(C)S(=O)(=O)c2cccs2)[C@@H](C)CN([C@@H](C)CO)C(=O)c2cc(NC(=O)Nc3cccc4ccccc34)ccc2O1`, the relative growth was inactive: 1.03.

Consider `C[C@H](CO)N1C[C@H](C)[C@H](CN(C)Cc2cccc(C(F)(F)F)c2)OCc2ccccc2-c2ccccc2C1=O`, for which the relative growth was inactive: 1.07.

Take `NC(=O)C12CC3C[C@@H](C1)C(=O)[C@@H](C3)C2`: the relative growth was inactive: 1.02.

Turning to `C[C@H]1CN([C@@H](C)CO)C(=O)c2cc(NC(=O)Cc3ccccc3)ccc2O[C@@H]1CN(C)S(=O)(=O)c1cn(C)cn1`, the relative growth was inactive: 1.02.

Turning to `COc1ccccc1C(=O)N1CCNCC1`, the relative growth is inactive: 1.02.

In the case of `N[C@@H](Cc1ccccc1F)C(=O)O`, the relative growth was inactive: 1.01.

`COC[C@H](O)CNNC(=O)OC(C)(C)C`: the relative growth is inactive: 1.01.

Turning to `C[C@H](CO)N1C[C@H](C)[C@H](CN(C)C(=O)NC2CCCCC2)Oc2ccc(NS(C)(=O)=O)cc2CC1=O`, the relative growth is inactive: 1.02.

As for `C[C@H]1CCCCO[C@H](CN(C)Cc2ccccc2)[C@@H](C)CN([C@@H](C)CO)C(=O)c2cc(NC(=O)Nc3ccc(C(F)(F)F)cc3)ccc2O1`, the relative growth is inactive: 1.01.

As to `C[C@H]1CN([C@@H](C)CO)C(=O)Cc2cc(NC(=O)CCCN(C)C)ccc2O[C@H]1CN(C)S(=O)(=O)c1ccc(Cl)cc1`, the relative growth is inactive: 0.99.

For `C[C@H](CO)N1C[C@H](C)[C@H](CN(C)C(=O)Cc2ccccc2)OCCCC[C@H](C)Oc2ccc(NC(=O)Nc3ccccc3)cc2C1=O`, the relative growth is inactive: 0.965.

Turning to `Cc1noc(C)c1S(=O)(=O)N(C)C[C@H]1Oc2ccc(NC(=O)C3CC3)cc2CC(=O)N([C@@H](C)CO)C[C@@H]1C`, the relative growth was inactive: 1.01.

On to `COc1ccccc1-c1cccc(-c2nc(C(=O)Nc3nccs3)cc3c2[C@H](CCO)N(C(=O)CC2CC2)C3)c1`, for which the relative growth was inactive: 1.06.

Consider `CC(C)C[C@@H]1NC(=O)[C@H]2C[C@@H](C(=O)NCCCCCCNC(=O)CS)[C@@H](c3cccc(OCCO)c3)N2C1=O`, for which the relative growth is inactive: 1.02.
